# Experimental data as given in paper PMC4336329 (PLoS ONE, 2015).
# Out of some 310,000 compounds screened, about 14,000 (4.5%) showed an effect of 50% or more. Effects have a minus sign here. The list shows a part of the results.
# Target: human ether-à-go-go-related gene (hERG) potassium channel (human, UniProt Q12809)
# Assay: primary screen, population patch clamp on CHO cells stably expressing hERG
# 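Note: peak tail current of the secondary pulse compared with the same well before compound.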
# Chain of human ether-à-go-go-related gene (hERG) potassium channel (Q12809 whole entry, looked up): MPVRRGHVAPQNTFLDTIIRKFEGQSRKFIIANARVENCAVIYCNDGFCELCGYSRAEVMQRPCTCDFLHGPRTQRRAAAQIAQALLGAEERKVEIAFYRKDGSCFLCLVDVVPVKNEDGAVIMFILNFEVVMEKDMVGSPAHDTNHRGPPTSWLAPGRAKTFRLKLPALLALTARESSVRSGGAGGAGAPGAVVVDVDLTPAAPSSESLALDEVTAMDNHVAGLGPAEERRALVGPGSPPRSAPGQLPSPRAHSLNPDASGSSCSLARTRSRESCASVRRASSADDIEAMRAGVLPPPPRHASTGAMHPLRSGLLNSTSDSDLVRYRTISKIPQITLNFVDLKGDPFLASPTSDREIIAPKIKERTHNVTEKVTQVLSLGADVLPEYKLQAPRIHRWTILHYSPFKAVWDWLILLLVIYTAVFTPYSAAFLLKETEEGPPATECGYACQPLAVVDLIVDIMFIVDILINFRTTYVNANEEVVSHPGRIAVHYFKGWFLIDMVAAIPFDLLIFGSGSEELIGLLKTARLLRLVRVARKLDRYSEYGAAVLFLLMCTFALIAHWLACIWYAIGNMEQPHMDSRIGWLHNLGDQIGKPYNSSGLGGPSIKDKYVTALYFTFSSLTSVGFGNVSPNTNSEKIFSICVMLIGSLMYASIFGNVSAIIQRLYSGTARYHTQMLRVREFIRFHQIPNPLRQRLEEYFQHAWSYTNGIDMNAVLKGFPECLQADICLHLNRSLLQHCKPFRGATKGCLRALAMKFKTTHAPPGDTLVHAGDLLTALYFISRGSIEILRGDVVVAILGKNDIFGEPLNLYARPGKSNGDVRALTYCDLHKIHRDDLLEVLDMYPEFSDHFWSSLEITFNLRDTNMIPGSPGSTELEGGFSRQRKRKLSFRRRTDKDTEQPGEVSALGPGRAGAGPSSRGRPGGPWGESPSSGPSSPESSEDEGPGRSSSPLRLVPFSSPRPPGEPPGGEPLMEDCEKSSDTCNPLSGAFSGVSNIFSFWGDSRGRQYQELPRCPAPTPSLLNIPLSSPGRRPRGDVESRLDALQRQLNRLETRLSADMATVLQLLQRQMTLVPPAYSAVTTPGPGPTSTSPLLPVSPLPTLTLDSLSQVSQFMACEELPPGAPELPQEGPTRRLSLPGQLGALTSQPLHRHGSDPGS
row,SMILES,"hERG current change (%, negative = inhibition) at 10uM"
1,COC(=O)C1=C(c2ccccc2OCc2ccccc2)C[C@@H]2CC[C@H]1N2C(=O)NCc1ccc([N+](=O)[O-])cc1,-48.9%
2,Cc1cccc(C(=O)Nc2ccc3c(c2)nc(C)n3C)c1,-1.73%
3,CCOc1cc(C(=O)Nc2ccc(N3CCOCC3)cc2)cc(Br)c1OC,15.3%
4,CC(C)(C)NC(=O)CN(C(=O)CNC(=O)c1cccs1)c1ccc2c(c1)OCCO2,9.71%
5,C/C(N)=C(/C#N)C(=O)CSc1nnc(NC(C)C)s1,15.7%
6,CCN(c1ccccc1)S(=O)(=O)c1nnc(NC(=O)c2ccccc2OC)s1,-0.472%
7,CC(C)Oc1cccc(C(=O)C2CCCN(Cc3ccc(Oc4ncccn4)cc3)C2)c1 (centres unmarked),-62.6%
8,C/C(Cn1nnc([N+](=O)[O-])n1)=N\NC(=O)c1cccc(Cl)c1,-11.7%
9,CC(C)c1ccc(N(CC(=O)NC(C)(C)C)C(=O)CCC(=O)Nc2nccs2)cc1,2.7%
10,COc1ccc(C(=O)NC(=S)NCc2ccccc2)cc1,-0.211%
11,COc1ccc(C2CC(=O)C(C=NCCN3CCN(C(=S)Nc4ccccc4)CC3)=C(O)C2)cc1OC (centres unmarked),-20.1%
12,CCCCc1nnc(NC(=O)CN(C)S(=O)(=O)c2ccc(C)cc2)s1,9.69%
13,Cc1cc(C)cc(NC(=O)C(=O)NCCCN2CCCC2=O)c1,-8.76%
14,CSCCC(NC(=O)c1cccc(C)c1)C(=O)OCN1C(=O)c2ccccc2C1=O (centres unmarked),-1.61%
15,Cc1ccc2c(c1)-c1cc(C)nn1C(c1sccc1C)N2 (centres unmarked),-2.98%
16,CCCOc1ccccc1NP(=O)(Oc1ccccc1)Oc1ccccc1,15.7%
17,CC1Cc2nc(SCC(=O)Nc3ccc4c(c3)OCO4)n(CCc3ccccc3)c(=O)c2S1 (centres unmarked),3.93%
18,Cc1ccc2oc(/N=C(\N)NC(=O)C(C)(C)C)nc2c1,4.85%
19,C=CCn1c(O)c(N=Nc2c(C)n(C)n(-c3ccccc3)c2=O)c(=O)[nH]c1=S,-1.57%
20,CCc1nc(N2CCN(C(=O)c3ccco3)CC2)c(C#N)c2c1COC(C)(C)C2,-52.1%
21,O=C(NC1CCCCCC1)c1cc(S(=O)(=O)N2CCC3(CC2)OCCO3)ccc1F,-7.15%
22,Cc1c(C(=O)N(Cc2cccs2)C2CCS(=O)(=O)C2)oc2ccccc12 (centres unmarked),-50.2%
23,COc1ccc(C2C(C(=O)Nc3cccnc3)=C(C)Nc3nc(-c4cccs4)nn32)cc1 (centres unmarked),-39.6%
